Some of the results follow. Most values come without repeats; read them as rough.
Each compound was assayed on C32 (assay: cell count relative to DMSO control; melanoma cells; higher = more viable cells). Conditions: library dose: low library concentration; 72 h.
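Further: cell number obtained by counting DAPI-stained nuclei in high-throughput microscope images with image analysis software, screen run in 1,536-well plates.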

SMILES	cell count [%]
NC(=O)c1ccc(N(C(N)=O)c2c(F)cccc2F)nc1-c1ccc(F)cc1F + Cn1cncc1[C@@](N)(c1ccc(Cl)cc1)c1ccc2c(c1)c(-c1cccc(Cl)c1)cc(=O)n2C [tipifarnib] (first compound 0.4 µM, partner dose 0.01 µM)	77.1
NC(=O)c1ccc(N(C(N)=O)c2c(F)cccc2F)nc1-c1ccc(F)cc1F + CO[C@@H]1[C@H](N(C)C(=O)c2ccccc2)C[C@H]2O[C@]1(C)n1c3ccccc3c3c4c(c5c6ccccc6n2c5c31)C(=O)NC4 [Midostaurin] (first compound 0.4 µM, partner dose 0.08 µM)	89.5
NC(=O)c1ccc(N(C(N)=O)c2c(F)cccc2F)nc1-c1ccc(F)cc1F + CN(NC(=O)CC(=O)NN(C)C(=S)c1ccccc1)C(=S)c1ccccc1 [STA4783] (first compound 0.4 µM, partner dose 0.006 µM)	90.8
Cc1ccc(NC(=O)c2cccc(N(C)C)c2)cc1NC(=O)c1ccc(O)cc1 + O=C(O)c1ccc(-c2c[nH]c3ncc(-c4ccccc4)cc23)cc1C1CCCC1 [GSK650394] (first compound 2 µM, partner dose 0.16 µM)	104
NC(=O)c1ccc(N(C(N)=O)c2c(F)cccc2F)nc1-c1ccc(F)cc1F + Cc1cc(N2CCOCC2)cc2[nH]c(-c3c(NC[C@@H](O)c4cccc(Cl)c4)cc[nH]c3=O)nc12 [BMS536924] (first compound 0.4 µM, partner dose 0.2 µM)	101

From the supplement of paper PMC4604168 (melanoma cell lines)
